From ChEMBL document CHEMBL4888484, “Replenishing the malaria drug discovery pipeline: Screening and hit evaluation of the MMV Hit Generation Library 1 (HGL1) against asexual blood stage Plasmodium falciparum ,using a nano luciferase reporter read-out” (2022)
Among all 150,000 compounds or so, about 540 (0.36%) showed an effect of 50% or more. The list shows a part of the results.

tested on: Plasmodium falciparum; experiment: Primary screen in NF54 nanoGlo assay, in single point, at 2uM, 72h; a lower Z score goes with more inhibition; assay type: functional, Erythrocyte; conditions: timepoint 72 hour

| Structure (SMILES) | % Inhibition [%] | Z score |
| --- | --- | --- |
| O=C(Cn1c2c(c(=O)n(C3CCCCC3)c1=O)CCC2)NCCCN1CCOCC1 | -15 | 2.49 |
| COc1cc(NC(=O)c2cc(S(=O)(=O)N3CCN(c4ccccc4)CC3)ccc2Cl)c(OC)cc1NC(=O)c1ccccc1 | -6 | 1 |
| O=C(Cn1nc2c(N3CCN(c4ccccc4)CC3)nccn2c1=O)Nc1ccc(Cl)cc1F | -12 | 1.18 |
| CCc1ocnc1C(=O)N[C@H]1CCOC[C@@H]1OCC1CCC1 | 4 | -0.41 |
| CC(NC(=O)NCc1c(C2CC2)cnn1C)C1COc2ccccc21 (stereo not given) | -1 | 0.19 |
| Cc1ccccc1CNC(=O)c1nc(-c2ccnc(N3CCOCC3)c2)no1 | -9 | 1.24 |
| CC(C)(CN1CCCCCC1)c1nc2cc3[nH]c(=O)[nH]c3cc2[nH]1 | -7 | 1.04 |
| C#CCN(C)S(=O)(=O)Cc1ccc(CC)cc1 | -8 | 1.45 |
| CN(Cc1ccc(Cl)s1)C(=O)CN1CCC[C@H]1C(=O)O | 1 | -0.13 |
| C1CCC(CCCN2CCNCC2)CC1 | -9 | 1.06 |
| O=C(CN1C(=O)CN(c2ccccc2)C1=O)Nc1ccc2c(c1)OCCO2 | -16 | 1.45 |
| CCN(C(=O)NCc1nc(C(=O)NC)no1)C1CCCCCC1 | 11 | -1.46 |
| Cc1ccc2nc(-c3ccccc3NC(=O)c3ccc(N(C)C)cc3)ccc2c1 | 0 | 0.02 |
| CC1(C)CN(CCNc2nc(C(F)F)nc3ccccc23)CCO1 | -11 | 1.54 |
| Cn1cc(-c2noc(-c3n[nH]c(=O)c4ccccc34)n2)cn1 | 10 | -1.26 |
| CS(=O)(=O)N1C[C@H](C(=O)Nc2ccc(N3CCOCC3)cc2)C2(CCCCC2)C1 | -13 | 2 |
| NCc1cc(F)c(Br)cc1F | -10 | 1.41 |
| COc1cc(-c2ncnn2-c2ccc(Cl)c(C)c2)ccc1OCc1ccccc1 | -7 | 0.81 |
| CC(C)N(CCNC(=O)C1CCN(c2ncnc3c2nc2n3CCCCC2)CC1)Cc1ccccc1 | -2 | 0.38 |
| CCOC(=O)c1sc(Nn2cc(C(=O)OC)c3n[nH]c(=O)c-3c2)nc1C | 0 | 0.02 |
| O=C(c1cccc(F)c1)N1C2C=CC(C2)C1(C(F)(F)F)C(F)(F)F (stereo not given) | 27 | -3.07 |
| CC(C)Cc1ncc2c(n1)CN(CC[C@H]1CCCCN1C)C2 | -8 | 1.11 |

| Structure (SMILES) | % Inhibition [%] | Z score |
| --- | --- | --- |
| COc1cccc(CN2CCC(CO)(CCCc3ccccc3)CC2)c1OC | 0 | 0.06 |
| COc1ccc(OC)c(-c2ccnc(-n3ncc(C(=O)NCC(C)(C)N4CCOCC4)c3C)n2)c1 | 11 | -1.36 |
| C[C@H](NC(=O)N1CCOC(CS(C)(=O)=O)C1)c1cccc(O)c1 (stereo not given in full) | -2 | 0.37 |
| Cc1nn(-c2cccc(Cl)c2)c2nc(-c3ccccn3)cc(C(F)(F)F)c12 | -10 | 1.85 |
| Cc1nc(Cn2nc(C3CCNCC3)n(Cc3ccccc3)c2=O)sc1C | -7 | 1.41 |
| CCN1CCN(C(=O)c2cc(C)nc(C)n2)[C@@H](C)C1=O | -7 | 1.27 |
| CC(Nc1ncnc2nc[nH]c12)C1CN(Cc2ccccc2)CCO1 (stereo not given) | -9 | 1.67 |
| O=C(Nc1ccc(OC[C@H](O)c2ccccc2F)cc1)c1ccco1 | -14 | 2.26 |
| O=S(=O)(c1ccc(-c2csc(-c3ccc(O)cc3)n2)cc1)N1CCOCC1 | 6 | -1.16 |
| O=C(NCCCc1ccccc1)[C@H]1CCCNCC1 | -5 | 0.48 |
| Fc1cc(F)c(CN2CCn3nc(CNc4ncccn4)cc3C2)c(F)c1 | -5 | 0.6 |
| O=C(NCCOCC(F)(F)F)NCCc1ccc(Cl)s1 | 5 | -0.86 |
| O=C(CCOc1ccccc1)N[C@@H]1COC2(CCCC2)C1 | 13 | -1.61 |
| COc1ccc(NC(=O)NC(Cc2ccc(F)cc2)Cc2ccc(F)cc2)c(OC)c1 | -6 | 0.98 |
| Cn1c(=O)ccc2c(NCCO)ncnc21 | -9 | 1.52 |
| CN1CCOC[C@@H](Cn2cnc3ccc(Cl)cc3c2=O)C1 | -10 | 1.92 |
| CCC(NC(C)Cn1ncc2ccccc2c1=O)c1ccccc1O (stereo not given) | -1 | 0.18 |
| Cc1ccc(OCCC(=O)N2CC[C@@H](N)C2)c(Br)c1 | 4 | -0.81 |
| COc1cc(CNn2cnnc2)ccc1OCc1ccc(F)cc1Cl | -7 | 0.99 |
| CCCN(C[C@H]1CCOC1)C(=O)NCC(C)C | -7 | 0.94 |
| O=C(CC(F)(F)F)N(Cc1ccco1)C1CC1 | -10 | 1.84 |
| O=C(NCCN1CCCCC1)c1cc2n(n1)CCN(Cc1cccc(C(F)(F)F)c1)C2=O | -5 | 0.81 |

| Structure (SMILES) | % Inhibition [%] | Z score |
| --- | --- | --- |
| Cc1ccc(NS(=O)(=O)c2ccc(Oc3ccc4c(C(F)(F)F)cc(C(F)(F)F)nc4n3)cc2)cc1 | -9 | 1.26 |
| CCCC(=O)N1CCC(C(=O)Nc2nc3c(s2)CCC3)CC1 | 12 | -1.2 |
| CC1CC(C)(C)CC(CO)(NC(=O)c2csnn2)C1 (stereo not given) | 0 | 0 |
| COC(=O)C1CC2CCCCC2N1S(=O)(=O)c1ccc(C(N)=O)cc1 (stereo not given) | 1 | -0.26 |
| CCN(Cc1nc(C(C)C)no1)C(=O)c1c(C)ncnc1C | -1 | 0.13 |
| Cc1nn(C2CCCC2)c2nc(-c3cccs3)[nH]c12 | -10 | 1.39 |
| O=C1C[C@@H](c2cccc(Oc3ccccc3)c2)NC(=O)N1 | 4 | -0.75 |
| COc1ccc(C2=NN(c3nc(-c4ccccc4)cs3)[C@H](c3ccc(Cl)cc3Cl)C2)cc1F | -2 | 0.34 |
| Nc1nc2c(c(-c3cccnc3)n1)CN(C(=O)[C@H]1C[C@@H]1c1ccccc1)C2 | -4 | 0.45 |
| CCOc1cc(C(=O)N2CCC3(O)CCCCC3[C@@H]2c2ccccc2OC)cc(OCC)c1OCC (stereo not given in full) | 2 | -0.26 |
| Cc1ccc2ncc(-c3ccnc(CO)c3)cc2c1 | 1 | -0.22 |
| CN(CC(=O)NC1CCOCC1)[C@H]1CCCN(Cc2ccccc2)C1 | -11 | 2.06 |
| Cc1nc(O)c(Br)cc1C(=O)N1CCC(OC2CCC2)CC1 | 12 | -2.38 |
| CCc1ccc([C@@H]2CCCCCN2C(=O)CCN2CCCC2=O)o1 | -10 | 0.93 |
| Cc1n[nH]c2ncc(NCc3cccc(C#N)c3)cc12 | -5 | 0.53 |
| Cc1ccc(-n2ccc3c(nnc4ncnn43)c2=O)cc1 | -2 | 0.25 |
| COc1ccccc1OCc1nc(C)nn1C[C@H]1COCCO1 | 0 | -0.06 |
| Cc1nccn1C1(C(=O)O)CCN(C(=O)c2cc3sccc3[nH]2)CC1 | -11 | 1.03 |
| COc1ccc(-c2nc(NCc3ccc(C)c(F)c3)[nH]c(=O)c2C#N)cc1 | -2 | 0.38 |
| COc1cccc(F)c1C(=O)N1CCN(C)[C@H](c2ccccc2)C1 | 9 | -1.63 |
| O=S(=O)(CCC1CCCC1)N1CC[C@]2(CCOC2)C1 | 33 | -3.6 |
| Nc1c2c(-c3ccc(F)cc3)nc(NCCc3ccccc3)nc2nn1-c1ccccc1Cl | -40 | 6.52 |

| Structure (SMILES) | % Inhibition [%] | Z score |
| --- | --- | --- |
| CCc1[nH]nc(-c2ccc(F)c(F)c2)c1NC(=O)c1ccccc1F | -13 | 1.9 |
| COc1ccc(-c2nn(-c3ccccc3C)cc2CN(C)Cc2ccn[nH]2)cc1F | -2 | 0.31 |
| C[C@H]1CN(C(=O)C(C)(C)C(F)F)Cc2ccccc2O1 | -16 | 1.7 |
| CCNC(=O)C1CN(C(=O)c2nn(-c3ccccc3Cl)cc2C)C1 | -18 | 2.47 |
| Cc1nc(-c2ccc3ccccc3c2)n(CCCO)n1 | -10 | 1.91 |
| COc1cccc(C(CC(=O)NC2CC2)c2cnc3n2C(C)CCC3)c1 (stereo not given) | -15 | 1.8 |
| CN1CC[C@H](NS(=O)(=O)c2cccc3ccoc23)C1 | -12 | 1.25 |
| Cn1ccc(CCNC(=O)NCCC2=CCCCCC2)n1 | -9 | 0.88 |
| Cc1noc(C)c1-c1cccc(C(=O)NCC2(C)COC2)c1 | -1 | 0.11 |
| O=C(NCCOc1ccc2c(c1)OCO2)NC[C@H]1CCCO1 | 4 | -0.85 |
| CCc1cc(CC)n(-c2cnn(C)c2)n1 | -6 | 0.56 |
| COC[C@H](C)C(=O)Nc1ccnc(C)c1Cl | -14 | 1.84 |
| C[C@@H](C(=O)N1CCN(c2ccc(F)cc2)CC1)n1c2ccccc2c2cnn(C)c(=O)c21 | -2 | 0.28 |
| CN(Cc1cc(Cl)cc2c1OCC2)C1CC[S+]([O-])CC1 (stereo not given) | 8 | -1.47 |
| CN(C)[C@@]1(c2nnnn2C2CCCC2)CCN(C(=O)c2ccc(F)cc2F)C1 | -3 | 0.34 |
| O=C(NCC1CCCO1)NC[C@@H]1Cc2ccccc2CO1 (stereo not given in full) | 6 | -0.94 |
| CN(CCC(=O)N1CCc2ccccc2C1)CCn1cccn1 | -10 | 1.38 |
| COc1cccc(-c2nc(NCCN3CCCCC3)nc3nn(C)c(N)c23)c1 | -10 | 1.13 |
| COc1ccc(S(=O)(=O)NC(CC(=O)NCC2CCCO2)c2ccco2)cc1 (stereo not given) | 12 | -1.44 |
